Results on 5 compounds are retold here after article PMC8399847, “Hybrid Quinolinyl Phosphonates as Heterocyclic Carboxylate Isosteres: Synthesis and Biological Evaluation against Topoisomerase 1B (TOP1B)” (Pharmaceuticals, 2021).

The target of assay [1] is T1, human TOP1B (hTOP1B) (Homo sapiens, UniProt P11387).
T1 sequence (P11387 1-765): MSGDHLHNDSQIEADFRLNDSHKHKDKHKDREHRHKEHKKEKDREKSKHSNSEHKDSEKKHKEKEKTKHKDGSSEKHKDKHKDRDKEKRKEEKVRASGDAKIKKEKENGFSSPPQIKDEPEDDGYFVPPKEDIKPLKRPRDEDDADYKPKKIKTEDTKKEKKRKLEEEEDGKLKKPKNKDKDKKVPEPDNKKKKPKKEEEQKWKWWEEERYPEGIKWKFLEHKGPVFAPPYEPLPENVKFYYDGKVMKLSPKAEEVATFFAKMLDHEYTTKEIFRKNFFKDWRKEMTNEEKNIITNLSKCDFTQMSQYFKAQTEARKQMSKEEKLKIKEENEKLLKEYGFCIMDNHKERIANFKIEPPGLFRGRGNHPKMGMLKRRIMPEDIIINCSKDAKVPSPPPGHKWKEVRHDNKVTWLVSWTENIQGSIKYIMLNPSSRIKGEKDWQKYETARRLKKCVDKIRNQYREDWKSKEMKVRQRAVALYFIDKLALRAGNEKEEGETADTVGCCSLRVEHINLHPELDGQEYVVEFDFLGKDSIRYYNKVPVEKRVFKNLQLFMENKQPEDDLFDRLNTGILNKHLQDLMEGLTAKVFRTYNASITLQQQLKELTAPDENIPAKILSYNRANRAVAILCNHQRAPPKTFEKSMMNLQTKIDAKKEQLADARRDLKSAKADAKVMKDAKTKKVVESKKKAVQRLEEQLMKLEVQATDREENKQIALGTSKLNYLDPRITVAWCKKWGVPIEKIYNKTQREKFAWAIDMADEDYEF
Conditions: for % Inhibition hTOP1B 15 seconds (semiquantitative, Table S1): reaction time 15 seconds; for % Inhibition hTOP1B 1 minute (semiquantitative, Table S1): reaction time 1 minute; for % Inhibition hTOP1B 3 minutes (semiquantitative, Table S1): reaction time 3 minutes.

Assay [2] concerns the target T1, human TOP1B (hTOP1B). Put plainly: biochemical.
Setting [3] is: read-out: % Inhibition hTOP1B 15 s.
[4] abbreviates: read-out: % Inhibition hTOP1B 1 min.
Where [5] appears, read: read-out: % Inhibition hTOP1B 3 min.

Like-named read-outs stand apart in the source and are kept apart here.

For `CC(C)OP(=O)(OC(C)C)c1cccc2c(-c3ccc(F)cc3)cc(-c3ccc(F)c(F)c3)nc12` [7o, Diisopropyl (2-(3,4-difluorophenyl)-4-(4-fluorophenyl)quinolin-8-yl)phosphonate], in assay [1], the “% Inhibition hTOP1B 15 seconds (semiquantitative, Table S1)” value (“% Inhibition hTOP1B 15 seconds” below) was “+”; the “% Inhibition hTOP1B 1 minute (semiquantitative, Table S1)” value (from here on “% Inhibition hTOP1B 1 minute”) is listed as “+”; the “% Inhibition hTOP1B 3 minutes (semiquantitative, Table S1)” value (“% Inhibition hTOP1B 3 minutes” for short) is “+”. Moreover, the inhibition at 100 µM in assay [2] (setting [3]) came out at 29%. For the same compound, in assay [2] (setting [4]), the inhibition at 100 µM turned out to be 27%. Also, the inhibition at 100 µM in assay [2] (setting [5]) stood at 3%.

As to `CCOP(=O)(OCC)c1cccc2c(-c3ccc(C)cc3)cc(-c3ccc(F)c(F)c3)nc12` [7k, Diethyl (2-(3,4-difluorophenyl)-4-(p-tolyl)quinolin-8-yl)phosphonate], the “% Inhibition hTOP1B 3 minutes” value in assay [1] was “+”. Also, the inhibition at 100 µM came to 63% in assay [2] (setting [3]), 95% in assay [2] (setting [4]) and 5% in assay [2] (setting [5]).

Take `CCOP(=O)(OCC)c1cccc2c(-c3ccccc3)cc(-c3ccccc3OC)nc12` [7d, Diethyl (2-(2-methoxyphenyl)-4-phenylquinolin-8-yl)phosphonate]: the “% Inhibition hTOP1B 15 seconds” value in assay [1] is “+”. The “% Inhibition hTOP1B 1 minute” value in assay [1] is “+”. Also, the inhibition at 100 µM in assay [2] (setting [3]) was found to be 22%; in assay [2] (setting [4]), 16%; in assay [2] (setting [5]) it was 3%.

Consider `CCOP(=O)(OCC)c1ccc2nc(-c3ccc(F)cc3)cc(-c3ccc(C)cc3)c2c1` [7v, Diethyl (2-(4-fluorophenyl)-4-(p-tolyl)quinolin-6-yl)phosphonate], for which, in assay [1], the “% Inhibition hTOP1B 15 seconds” value is recorded as “+”; the “% Inhibition hTOP1B 1 minute” value is listed as “+”; the “% Inhibition hTOP1B 3 minutes” value is recorded as “+”. Also, the inhibition at 100 µM in assay [2] (setting [3]) was found to be 22%. Besides, in assay [2] (setting [4]), the inhibition at 100 µM was determined as 30%. The inhibition at 100 µM in assay [2] (setting [5]) is 12%.

Consider `CCOP(=O)(OCC)c1cccc2c(-c3ccccc3)cc(-c3cccc4ccccc34)nc12` [7f, Diethyl (2-(naphthalen-1-yl)-4-phenylquinolin-8-yl)phosphonate], for which the “% Inhibition hTOP1B 15 seconds” value in assay [1] is reported as “+”. The “% Inhibition hTOP1B 1 minute” value in assay [1] is recorded as “+”. The inhibition at 100 µM was found to be 27% in assay [2] (setting [3]), 28% in assay [2] (setting [4]) and 8% in assay [2] (setting [5]).

As usually defined, the inhibition is how much of the control response was suppressed.
